Test results reported in the BET-seq Pho4 binding data (Le et al. 2018).
This is one part of the list. The energies were worked out here from pooled read counts, against the library average; single values are noisy.

Target: T1, Pho4 (S. cerevisiae) (UniProt P07270)
T1 sequence: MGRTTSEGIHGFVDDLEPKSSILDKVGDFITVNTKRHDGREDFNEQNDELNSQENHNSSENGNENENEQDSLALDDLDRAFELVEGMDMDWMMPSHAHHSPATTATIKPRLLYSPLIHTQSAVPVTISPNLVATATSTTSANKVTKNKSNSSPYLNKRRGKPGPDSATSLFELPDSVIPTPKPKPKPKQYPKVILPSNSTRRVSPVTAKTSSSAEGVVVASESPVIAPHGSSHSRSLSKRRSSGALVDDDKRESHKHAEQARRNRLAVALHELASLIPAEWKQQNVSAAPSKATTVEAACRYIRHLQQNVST
Assay: relative binding free energy (BET-seq); higher = weaker binding
Details: reference: library average

Sequence	relative binding free energy
GTTCTCACGTGGGCGA	0.21 kcal/mol
TATGGCACGTGTTATA	-0.08 kcal/mol
GTGTTCACGTGTGGCA	0.31 kcal/mol
CGGTACACGTGATGGG	0.14 kcal/mol
ATGTGCACGTGAGTGG	0.21 kcal/mol
TAGTTCACGTGCAATG	0.38 kcal/mol
GAGTACACGTGTATTT	0.18 kcal/mol
TCGTTCACGTGATGCT	0.39 kcal/mol
CTGGTCACGTGGTGTA	-0.03 kcal/mol
TTAGGCACGTGAGAAG	0.21 kcal/mol
ATCGTCACGTGTGCGT	0.14 kcal/mol
GCACGCACGTGTGGGG	-0.25 kcal/mol
TGCGGCACGTGGAGGG	-0.07 kcal/mol
GACTTCACGTGGGCGG	0.38 kcal/mol
AGTAACACGTGGGCTG	-0.21 kcal/mol
GGTTTCACGTGGAAGT	0.35 kcal/mol
TTGTACACGTGTGCAG	-0.13 kcal/mol
ATAATCACGTGAATTG	0.19 kcal/mol
TGTATCACGTGAGCGG	0.45 kcal/mol
GTGTACACGTGGTCTT	0 kcal/mol
TGCTGCACGTGTGCGG	0.02 kcal/mol
GACGTCACGTGTTTGG	0.18 kcal/mol
AATATCACGTGGGATA	0.19 kcal/mol

Sequence	relative binding free energy
TGGGGCACGTGTCCGT	-0.19 kcal/mol
GGGTCCACGTGCGGGG	-0.03 kcal/mol
AGATGCACGTGAAGGC	0.31 kcal/mol
CTATGCACGTGTATGT	-0.04 kcal/mol
GACGTCACGTGAAGTG	0.44 kcal/mol
TGTTTCACGTGATTAT	0.38 kcal/mol
TGCGGCACGTGAGGGT	0.09 kcal/mol
AAGTGCACGTGGTGAT	-0.17 kcal/mol
ATAGGCACGTGTGGAT	-0.08 kcal/mol
CGTAGCACGTGATTGT	0 kcal/mol
AGATTCACGTGTAGTT	0.19 kcal/mol
ATGATCACGTGGCTTG	0.09 kcal/mol
GTCAGCACGTGATGGG	0 kcal/mol
TTGTGCACGTGCAGGA	-0.12 kcal/mol
ATGTACACGTGGTTTG	0.02 kcal/mol
ATTTTCACGTGCACGT	0.15 kcal/mol
CATTCCACGTGGGGGT	-0.12 kcal/mol
TAATCCACGTGTTGTA	0.06 kcal/mol
TTGGCCACGTGAATAG	0.44 kcal/mol
CTAGGCACGTGTGTAC	0.01 kcal/mol
TTTAACACGTGAAGGT	0.37 kcal/mol
ATTCGCACGTGTAATG	-0.05 kcal/mol
GGGTTCACGTGTGCTC	0.31 kcal/mol

Sequence	relative binding free energy
TTTTGCACGTGGCGCA	-0.12 kcal/mol
AATTTCACGTGAAGGA	0.43 kcal/mol
TACGACACGTGTTGGG	-0.02 kcal/mol
GATGGCACGTGCGGGG	-0.18 kcal/mol
GCGGGCACGTGGGTTC	-0.17 kcal/mol
GTGTACACGTGGTTGA	0.02 kcal/mol
ACTTACACGTGGTTTT	0.07 kcal/mol
TTATGCACGTGGGCAA	-0.22 kcal/mol
CAGTTCACGTGGTATT	0.33 kcal/mol
TGCTTCACGTGTGTCG	0.28 kcal/mol
GTATGCACGTGGGGCG	-0.1 kcal/mol
TCGGACACGTGGGATG	-0.09 kcal/mol
GGCGTCACGTGGGAGT	0.21 kcal/mol
TTTAACACGTGGAGTG	-0.05 kcal/mol
TGTCGCACGTGGGATG	-0.12 kcal/mol
GAAGTCACGTGTAAGT	0.22 kcal/mol
TCGTTCACGTGGTGTT	0.22 kcal/mol
AGGCTCACGTGAGTTT	0.3 kcal/mol
CGAAGCACGTGGTGCG	-0.11 kcal/mol
GGTTGCACGTGTCATG	0 kcal/mol
CGCGGCACGTGTATGT	-0.09 kcal/mol
GTAGGCACGTGTAATG	0.06 kcal/mol
TTTGCCACGTGTGGCG	0.15 kcal/mol

Sequence	relative binding free energy
TCTCTCACGTGTTTGT	0.22 kcal/mol
TGGCACACGTGGTTTT	0.01 kcal/mol
CATGACACGTGGTGGG	-0.08 kcal/mol
GAATGCACGTGGTGTG	-0.11 kcal/mol
CGTTCCACGTGGAGGT	0.24 kcal/mol
TCTATCACGTGAATTT	0.28 kcal/mol
AGCAACACGTGTGGGG	0.07 kcal/mol
TTTAACACGTGCAAGT	0.07 kcal/mol
GAAGTCACGTGGCGGC	0.14 kcal/mol
AATAGCACGTGTGCAG	0.03 kcal/mol
AAAGTCACGTGGCGTT	0.16 kcal/mol
TGCGACACGTGGATGG	0.11 kcal/mol
TATACCACGTGTGGGA	-0.01 kcal/mol
TGAATCACGTGGGCAT	0.2 kcal/mol
TTGGGCACGTGAGGGT	0.14 kcal/mol
ATTTTCACGTGTTAGG	0.15 kcal/mol
AGGGTCACGTGATTAG	0.44 kcal/mol
TGTCTCACGTGGTGAA	0 kcal/mol
TTTAACACGTGGGAAA	-0.05 kcal/mol
TCGTTCACGTGAAAGT	0.48 kcal/mol
ATTCGCACGTGATTGA	0.23 kcal/mol
TGTCGCACGTGTTTGT	-0.11 kcal/mol
ATGGACACGTGGGGAT	-0.05 kcal/mol

Sequence	relative binding free energy
TGTATCACGTGGTAGG	0.17 kcal/mol
CTATTCACGTGGTTGA	0.27 kcal/mol
TCTGGCACGTGGGGAG	-0.23 kcal/mol
TCGGTCACGTGGTTCA	0.09 kcal/mol
CTTCGCACGTGGGAGG	-0.18 kcal/mol
CATAGCACGTGTTTGT	-0.14 kcal/mol
AAGTTCACGTGTGGAA	0.45 kcal/mol
TGTTTCACGTGGGGCG	0.16 kcal/mol
GCATTCACGTGGTATG	0.12 kcal/mol
CTATTCACGTGTGTTA	0.21 kcal/mol
AGCGGCACGTGGATTT	0.05 kcal/mol
TGAGTCACGTGATTAA	0.18 kcal/mol
CGGGACACGTGGTTCT	0.13 kcal/mol
TTGGTCACGTGACTGA	0.13 kcal/mol
TGAATCACGTGGATGA	0.18 kcal/mol
GGTGTCACGTGGGTTA	-0.02 kcal/mol
TTAGTCACGTGGCAAT	0.03 kcal/mol
TTCTGCACGTGCTTGT	-0.01 kcal/mol
TCGTTCACGTGTGTTC	0.34 kcal/mol
GCTGGCACGTGCGATG	0.13 kcal/mol
TTTGTCACGTGTATTA	0.13 kcal/mol
ATTGACACGTGGAGTT	0.09 kcal/mol
TTATACACGTGAGAGG	0.35 kcal/mol
